Assay results taken from patent US20240270861A1.

Target: poly-specificity reagent (PSR): detergent solubilized CHO cell membrane proteins
Assay: PSR assay: molecule on protein A beads, biotinylated PSR, SA-PE read out by flow cytometry; + PSR panel

| Binder | % of events in quadrant Q2 (PSR binding+) |
| --- | --- |
| AB1080 multispecific binding protein (bispecific antibody, V domains shown) VH: EVQLVQSGGGVVQPGRSLRLSCAASGFTFSSYGMHWVRQAPGKCLEWVAVIWYDASNKYYGDSVKGRFTISRDNSKNTLYLQMNSLRDEDTAVYYCARRFTHLRGWYIEDYGLDVWGQGTTVTVSS VL: EIVLTQSPSSLSASVGDRVTIT[in this place about 80 residues]FGCGTKVEIK | 0.15% |
| AB1081 multispecific binding protein (bispecific antibody, V domains shown) VH: EVQLVQSGGGVVQPGRSLRLSCAASGFAFSSYGMHWVRQAPGKCLEWVAVIWYDESNKYYGDSVKGRFTISRDNSRNTLYLQMNSLRDEDTAVYYCARRFTNLRGWIIEDYGLDVWGQGTTVTVSS VL: EIVLTQSPSSLSASVGDRVTIT[in this place about 80 residues]FGCGTKVEIK | 18.1% |
